Results from article PMC2804594.
Results are given in words; binding and its absence hold for the method and conditions named. For some of these results: Binding seen in cells or lysates may run through a third protein. Some binding calls cover weakened binding; strength is not graded here. For some of these results: Where a sequence is shown, tags or fusion partners need not be part of it. Values belong to the molecule of their own block, whether it stands above or below them.

Amino acid sequences for entries named in this document (tags omitted). A change or cut given only in a name is not applied to a line headed by its entry. Residues count along the entry.
UniProt P03372: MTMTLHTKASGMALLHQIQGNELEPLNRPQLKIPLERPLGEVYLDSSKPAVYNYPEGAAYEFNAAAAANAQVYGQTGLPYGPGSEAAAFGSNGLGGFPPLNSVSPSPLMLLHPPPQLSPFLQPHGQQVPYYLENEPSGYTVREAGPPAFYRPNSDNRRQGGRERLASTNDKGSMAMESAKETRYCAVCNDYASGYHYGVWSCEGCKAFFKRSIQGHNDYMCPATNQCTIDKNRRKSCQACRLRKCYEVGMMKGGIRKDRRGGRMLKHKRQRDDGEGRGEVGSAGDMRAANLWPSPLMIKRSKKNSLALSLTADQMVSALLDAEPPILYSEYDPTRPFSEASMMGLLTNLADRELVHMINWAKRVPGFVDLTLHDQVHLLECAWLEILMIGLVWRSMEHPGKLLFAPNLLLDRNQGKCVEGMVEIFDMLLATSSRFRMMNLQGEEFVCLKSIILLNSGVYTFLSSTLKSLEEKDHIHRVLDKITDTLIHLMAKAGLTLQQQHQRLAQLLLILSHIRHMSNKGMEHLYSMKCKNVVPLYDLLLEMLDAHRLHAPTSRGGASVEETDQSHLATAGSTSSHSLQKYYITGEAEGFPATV
UniProt Q9BQ69: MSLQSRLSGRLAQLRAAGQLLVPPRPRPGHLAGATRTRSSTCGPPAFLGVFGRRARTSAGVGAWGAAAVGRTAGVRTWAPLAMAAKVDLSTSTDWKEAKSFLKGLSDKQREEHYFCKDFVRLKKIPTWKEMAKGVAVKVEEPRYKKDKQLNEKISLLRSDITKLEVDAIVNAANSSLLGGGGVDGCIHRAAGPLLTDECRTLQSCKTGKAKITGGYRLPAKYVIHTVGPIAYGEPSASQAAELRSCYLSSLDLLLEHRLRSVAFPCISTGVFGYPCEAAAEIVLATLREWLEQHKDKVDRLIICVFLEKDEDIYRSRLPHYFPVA
GST-LRP16-N (1-160): residues 1-160 of Q9BQ69
GST-LRP16-C (161-324): residues 161-324 of Q9BQ69

Columns and labels:
[1] = target: T1, Flag-K18-C1 (amino acids 301-430) (human) (UniProt P05783); assay: co-IP; MCF-7 cell lysates (20 mM Tris pH 7.4, 50 mM NaCl, 1 mM EDTA, 0.5% NP-40, 0.5% SDS, 0.5% deoxycholate; 2% Empigen BB to solubilize keratins), antibody overnight at 4°C, immunoblotting; cells transfected with LRP16, Flag-K18-C1, K18 or empty vector; in one panel treated with E2 (100 nM) for 1 h
T1 sequence: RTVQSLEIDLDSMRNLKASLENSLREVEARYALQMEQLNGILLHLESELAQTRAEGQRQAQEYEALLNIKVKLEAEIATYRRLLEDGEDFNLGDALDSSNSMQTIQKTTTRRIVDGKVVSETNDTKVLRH

[2] = target: T2, endogenous keratin 18 of MCF-7 cells (human (endogenous in MCF-7)) (UniProt P05783); assay: as above
T2 sequence: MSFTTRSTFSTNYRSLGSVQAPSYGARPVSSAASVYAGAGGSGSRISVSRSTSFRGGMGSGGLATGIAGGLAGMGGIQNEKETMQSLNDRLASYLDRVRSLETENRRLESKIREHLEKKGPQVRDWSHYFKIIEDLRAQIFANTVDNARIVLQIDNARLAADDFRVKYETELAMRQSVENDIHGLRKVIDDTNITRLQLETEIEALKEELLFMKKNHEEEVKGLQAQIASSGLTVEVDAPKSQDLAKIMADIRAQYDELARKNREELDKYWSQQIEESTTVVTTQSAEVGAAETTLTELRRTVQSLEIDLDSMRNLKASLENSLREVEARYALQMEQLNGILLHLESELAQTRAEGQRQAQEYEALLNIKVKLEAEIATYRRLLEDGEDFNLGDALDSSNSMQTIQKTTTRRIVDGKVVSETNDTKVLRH

[3] = target: estrogen receptor α of MCF-7 cells (human (endogenous in MCF-7)) (UniProt P03372); assay: as above
[4] = target: endogenous LRP16 of MCF-7 cells (human (endogenous in MCF-7)) (UniProt Q9BQ69); assay: as above
[5] = target: GST-LRP16 fusion protein (human) (UniProt Q9BQ69); assay: pull-down; GST or GST fusion proteins with in vitro-translated 35S-labeled K18 and its deletion mutants; SDS-PAGE; only the target purified
[6] = target: Gal4 DNA binding domain-LRP16 fusion (pGBKT7-LRP16) (human) (UniProt Q9BQ69); assay: two-hybrid; yeast AH109 transformed with GAL4-DBD and GAL4-AD chimeric constructs; chromogenic X-Gal assay and liquid ONPG beta-galactosidase assay
[7] = target: GST-LRP16-C (161-324) (human) (UniProt Q9BQ69); assay: pull-down; GST or GST fusion proteins with in vitro-translated 35S-labeled K18 and its deletion mutants; SDS-PAGE; only the target purified
[8] = target: GST-LRP16-N (1-160) (human) (UniProt Q9BQ69); assay: as above

Molecule: endogenous LRP16 of MCF-7 cells (from UniProt Q9BQ69 1-325)
binding [1]: binds
binding [2]: binds
binding [3]: binds

Molecule: LRP16 expressed from pcDNA3.1-LRP16 in MCF-7 cells (from UniProt Q9BQ69 1-325)
binding [2]: binds

B1: Flag-K18-C1 (amino acids 301-430) (domain or fragment, UniProt P05783 301-430)
chain: T1 sequence
binding [4]: binds

B4: K18-N (amino acids 1-150), in vitro translated (domain or fragment, UniProt P05783 1-150)
chain: MSFTTRSTFSTNYRSLGSVQAPSYGARPVSSAASVYAGAGGSGSRISVSRSTSFRGGMGSGGLATGIAGGLAGMGGIQNEKETMQSLNDRLASYLDRVRSLETENRRLESKIREHLEKKGPQVRDWSHYFKIIEDLRAQIFANTVDNARI
modifications: 35S-labeled
binding [5]: no binding

B5: Gal4 activation domain-K18 fusion (pGADT7-K18) (protein, UniProt P05783 1-430)
chain: T2 sequence
binding [6]: binds

The next lines start with the values.

binding [5]: binds
B2: K18-C1 (301-430), in vitro translated (domain or fragment, UniProt P05783 301-430)
chain: T1 sequence
modifications: 35S-labeled

binding [5]: binds
Molecule: FNLGDALDSSNSMQTIQKTTTRRIVDGKVVSETNDTKVLRH (domain or fragment, UniProt P05783 390-430, 35S-labeled) [K18-C2 (390-430), in vitro translated]

binding [5]: no binding
B3: K18-F (80-375), in vitro translated (domain or fragment, UniProt P05783 80-375)
chain: EKETMQSLNDRLASYLDRVRSLETENRRLESKIREHLEKKGPQVRDWSHYFKIIEDLRAQIFANTVDNARIVLQIDNARLAADDFRVKYETELAMRQSVENDIHGLRKVIDDTNITRLQLETEIEALKEELLFMKKNHEEEVKGLQAQIASSGLTVEVDAPKSQDLAKIMADIRAQYDELARKNREELDKYWSQQIEESTTVVTTQSAEVGAAETTLTELRRTVQSLEIDLDSMRNLKASLENSLREVEARYALQMEQLNGILLHLESELAQTRAEGQRQAQEYEALLNIKVKLEA
modifications: 35S-labeled

binding [4]: binds
binding [3]: no binding
B6: ectopically expressed K18 in MCF-7 cells (K18 expression vector) (protein, UniProt P05783 1-430)
chain: T2 sequence

binding [3]: no binding
B7: endogenous keratin 18 of MCF-7 cells (protein, UniProt P05783 1-430)
chain: T2 sequence

binding [5]: binds
binding [7]: binds
binding [8]: binds weakly
B8: in vitro-translated 35S-labeled full-length K18 (protein, UniProt P05783 1-430)
chain: T2 sequence
modifications: 35S-labeled
